Experimental data as given in PubChem BioAssay AID1508624 (National Center for Advancing Translational Sciences (NCATS), 2021).
Hit rate of the full screen: of about 48,000 compounds, about 120 (0.25%) were called active. Roughly 4% stayed inconclusive and do not appear here. Calls follow the shape of the dose curve; as a rule, active = well fitted activation curve with a large enough effect; inconclusive = small, poorly fitted or top-dose-only effect, or another doubt; inactive = no such curve, though single readings can be large or run the other way. The list shows a part of the results.

Assay: Primary qHTS for Identification of Small Molecule Activators of Huntingtin-Antisense Promoter Activity; also: nearly all actives have a fitted effect of over 55% in size
Conditions: HEK293 HTT-AS promoter firefly luciferase reporter, 24 h; series mostly up to 57.5 µM; activity change, positive = activation: at the top concentration
Summary of the method: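 Firefly luciferase signal from promoter-reporter HEK293 cells was scaled between vehicle (0%) and zero RLU (-100%). Compounds were tested at final concentrations of up to 57.5 uM over 24 h at 37 degrees C. PTC124 at 50 uM final served as control inhibitor.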

Activity change, positive = activation, inactive:
CCOC(=O)c1cc2c(=O)n3ccccc3nc2n(Cc2ccco2)c1=NC(=O)c1ccc(Br)cc1 -18.4%, Cc1ccc(NC(=O)c2nnn(Cc3ccccc3)c2N)cc1C 28.1%, CCN1CCN(CC(=O)Nc2ccc(-c3cccc4c(=O)cc(N5CCOCC5)oc34)c3sc4ccccc4c23)CC1 -35.6%, O=C(Nc1ccc(Br)cc1)c1ccc(F)c(S(=O)(=O)NC2CCCCCC2)c1 -91.2%, Cc1ccccc1-c1nc(SCC(=O)NCc2ccc(F)cc2)c2c(=O)n(C)c(=O)n(C)c2n1 -1.96%, Cc1cn2c(=O)cc(COc3cccc(NC(=O)c4ccc(C(C)(C)C)cc4)c3)nc2s1 6.21%, CCOC(=O)C1CCN(CC(=O)Nc2cc(C)c3c(=O)oc4ccccc4c3n2)CC1 -11.3%, CCOc1ccc(NC(=O)c2c(C)nn(-c3ccc(F)cc3)c2-n2cccc2)cc1 -8.58%, Cc1nn(-c2ccccc2)c2nc(C3CC3)cc(C(=O)Nc3ccc(F)cc3)c12 -33.2%, N#CC(=C(N)Sc1ccc(N)cc1)c1ccccc1C(F)(F)F -10.5%, CCc1c(C)sc2c1CCN(Cc1ccccc1)C2c1ccccc1 (centres undefined) -35.9%, O=C(Nc1ccc(OCc2cc(=O)n3c4c(sc3n2)CCCC4)cc1)c1cccc(F)c1 -4.8%, Cc1ccc(NC(=O)CN(C)S(=O)(=O)c2ccc3c(c2)n(C)c(=O)c(=O)n3C)cc1F -3.39%, COC(=O)c1sc2cccc(F)c2c1S(=O)(=O)N1CCN(c2cccc(OC)c2)CC1 -30.7%, CCOC(=O)c1cc(-c2ccccc2)n(CCC(=O)NCc2ccccc2Cl)c1C -29.4%, COc1ccc(Nc2nc3ccccc3nc2NS(=O)(=O)c2ccc(C)cc2)c(OC)c1 -12.6%, CCN(CC)c1cc(C)c2cc(NC(=O)c3cccc(OC)c3OC)ccc2n1 -6%, O=C(COc1ccccc1F)OCc1cc(=O)n2nc(C3CCCCC3)sc2n1 4.11%, COc1cccc2cc(S(=O)(=O)c3ccc(F)c(C)c3)c(=O)oc12 14.8%, O=C1Nc2ccccc2Oc2cc(Oc3cccc(Cl)c3)ccc21 -19.8%, Cc1nc2nc(SCC(=O)N(C)Cc3ccccc3)nn2c(C)c1Cc1ccccc1Cl -1.23%, Fc1ccc(N2CCN(c3nc4ccccc4c4nc(-c5cccnc5)nn34)CC2)cc1 -2.26%, CCCCN(C)CCNC(=O)C1CCCN(S(=O)(=O)c2cccc3nsnc23)C1 (centres undefined) -14.7%, Cc1nnc(N2CCCC(C(=O)NCc3ccccc3)C2)c2nn(-c3ccccc3)c(C)c12 (centres undefined) -9.22%, CCc1ccc(S(=O)(=O)c2cn(C)c3cc(N4CCOCC4)c(F)cc3c2=O)cc1 -14.7%, Cc1c(Cl)cccc1-c1ccc(CNCCCSc2nnnn2C)o1 -17.3%, Cc1ccn2c(Nc3ccccc3C)c(-c3ccc(N4CCOCC4)cc3)nc2c1 -16.8%, CCCc1c2oc(C(=O)O)cc(=O)c2cc2c(=O)cc(C(=O)O)n(CC)c12 -0.428%, Cc1ccccc1CCNC(=O)c1ccc(NC(=O)N2CC(C)Sc3ccccc32)cc1 (centres undefined) -7.41%, O=C(COc1ccc(Cl)cc1)NCC(c1ccco1)S(=O)(=O)c1ccccc1 (centres undefined) -20.9%, COc1ccccc1NC(=O)c1sc2nc3c(c(C(F)(F)F)c2c1N)CN(C(C)=O)CC3 -4.11%, Cc1nn(-c2ccc(N3CCOCC3)nn2)c(C)c1CCC(=O)NCc1ccccc1 -9.69%, Cc1cc(C)c(NC(=O)CSc2n[nH]c(-c3ccccc3Cl)n2)c(C)c1 -25%, Cc1ccc(C)c(Nc2nnc(-c3ccc(C)c(S(=O)(=O)N4CCN(C)CC4)c3)c3ccccc23)c1 2.4% [at 11.5 µM, percent change from vehicle, -100% = no light], CCc1ccc(NC(=O)C(=O)NCCc2csc(-c3cccc(F)c3)n2)cc1 0.614%, CCn1nc(C)c2c(-c3ccccc3)cc(=O)n(C(C)C(=O)Nc3cccc(F)c3)c21 (centres undefined) -26.1%, CCC(Sc1ncc(S(=O)(=O)c2ccc(C)cc2)c(=O)[nH]1)C(=O)Nc1cc(C)ccc1C (centres undefined) -17%, CCc1ccc(NC(=O)CN2CCN(C3CCCCC3)C(=O)C2=O)cc1 -3.29%, O=C(Cn1cc(SCc2ccc(Br)cc2)c2ccccc21)N1CCCCC1 1.7%, Cn1nnnc1SCCCNCc1cccc(OCc2ccccc2F)c1 -2.04%, O=C(Nc1c(C(=O)c2ccc(Cl)cc2)oc2ccccc12)c1cc(=O)c2ccccc2o1 0%, Cc1ccc2oc(=O)c(S(=O)(=O)c3ccc(F)cc3)cc2c1 -2.52%, CCc1nc2ccc(C(=O)NCc3ccc(N(C)C)cc3)cc2nc1CC -8.65%, COc1ccc(NC(=O)c2ccco2)cc1NC(=O)c1ccc(C)c(C)c1 -12.4%, CCN(C(=O)CSc1nc2ccccc2n1Cc1ccc(C(=O)OC)cc1)c1ccccc1 -15.4%, COc1ccc(CCN2C(=O)NC(NC(=O)c3ccccc3OC)(C(F)(F)F)C2=O)cc1OC (centres undefined) -21.7%, C=C(C)Cn1c(=O)c2c(nc3n2CCN3c2cc(C)cc(C)c2)n(C)c1=O -4.8%, O=C(O)c1ccccn1 -5.02%, CN(C)CCNC(=O)CN1N=C(c2ccccc2)CCC1=O 1.16%, COc1ccc(NC(=O)c2cnc(Nc3ccc(C)c(Cl)c3)c3ccccc23)c(OC)c1 2.71%, CC(=O)Oc1ccc(C(=C2CCCCC2)c2ccc(OC(C)=O)cc2)cc1 -14.5%, CCCC(=O)N1CCc2cc(OC)c(OC)cc2C1COc1ccc2c(C)cc(=O)oc2c1 (centres undefined) 7.07%, COc1ccc2c(c1)CC(C(=O)NCCN1CCN(c3ccccc3F)CC1)CO2 (centres undefined) -18%, COc1ccc(CNc2nc(-c3ccc(OC)cc3)cc(C(F)(F)F)n2)cc1 -41.4%, COc1ccc(NC(=O)Cn2c(=O)cc(C)c3c(C)nn(C)c32)cc1 -25.1%, CCCSc1ncc(Cl)c(C(=O)Nc2ccc(S(=O)(=O)N3CCC(C)CC3)cc2)n1 -37.6%, CCOc1ccc(NC(=O)Cn2cc(C(=O)c3ccc(CC)cc3)c(=O)c3cc4c(cc32)OCO4)cc1 -18.2%, Cc1ccc(Cl)cc1N1CCN(C(=O)c2cnn(C(C)(C)C)c2C2CCN(C(=O)OC(C)(C)C)CC2)CC1 -29%, CCCCc1ccc(Nc2cc(C)nc(-n3nc(C)cc3C)n2)cc1 -10.1%, O=C(NCC(c1cccnc1)N1CCc2ccccc2C1)C(=O)Nc1ccccc1F (centres undefined) -5.05%, CCN(C(=O)CCS(=O)(=O)c1ccc2c(c1)CCN2C(C)=O)c1cccc(C(F)(F)F)c1 -18.8%, CCN1CCc2c(sc(NC(=O)c3ccc(S(=O)(=O)N(C)C4CCCCC4)cc3)c2C(N)=O)C1 -12.8%, CC(=O)O[C@]1(C(C)=O)CC[C@H]2[C@@H]3C=C(Cl)C4=CC(=O)[C@@H]5C[C@@H]5[C@]4(C)[C@H]3CC[C@@]21C -20.1%, O=C(/C=C\c1ccc2c(c1)OCO2)NC1CC(=O)N(c2ccccc2)C1 (centres undefined) -18.1%, CSc1ccc(CNC(=O)Cn2c(-c3cccs3)cc3cc(F)ccc32)cc1 -27%, Cc1cccc(C)c1Nc1c(-c2ccc(N3CCOCC3)cc2)nc2ncccn12 -10.1%, O=C(Cn1nc(Cc2ccncc2)c2ccccc2c1=O)Nc1cccc(C(F)(F)F)c1 -32.9%, CCN(CC)CCN(C(=O)c1ccco1)c1nc2c(C)c(C)ccc2s1 -12.8%, CNC(=O)c1c(NC(=O)c2cc(=O)c3cc(C)c(C)cc3o2)sc2c1CCCC2 -0.01%, Cc1ccc(CSCCC(=O)N2CCN(c3ccc(F)cc3)CC2)cc1 -23%, COc1ccccc1CNC(=O)Cn1c(-c2ccc(F)cc2)cc(C(C)=O)c1C -14.3%, Cc1ccc(-c2cc(C(F)(F)F)n3nc(-c4cccc(Br)c4)cc3n2)cc1 5.27%, CC(=O)Nc1ccc(NC(=O)CN2C(=O)CC(c3ccco3)Sc3ccccc32)cc1 (centres undefined) -11.8%, CCn1c(=O)cc(OCC(=O)N2CCN(c3ccc(C(C)=O)cc3)CC2)c2ccccc21 0.771%, CC(C)c1cc(-c2n[nH]c(=O)n2-c2ccc3c(ccn3C)c2)c(O)cc1O -59.3%, COc1ccc(N2CCN(C(=O)CN3CCSc4ccccc43)CC2)cc1 -20.4%, CC1(C)OC2CC3C4CC(F)C5=CC(=O)C=CC5(C)C4C(O)CC3(C)[C@]2(C(=O)CO)O1 (some centres undefined) -10.3%, CCCCNC(=O)CC1Nc2cc(C)c(C)cc2NC1=O (centres undefined) 7.33%, COc1ccccc1NC(=O)c1nn(C)c2c1CS(=O)(=O)c1ccccc1-2 -0.773%, CN(C)S(=O)(=O)c1ccc(C(=O)NCCSc2c(-c3ccc(Br)cc3)[nH]c3ccccc23)cc1 -28.5%, Cc1c(Cl)cccc1N1CCn2c1nc1c2c(=O)n(CC(=O)O)c(=O)n1C 3.44%, COc1ccc(Cl)cc1NC(=O)Nc1c[nH]c(=O)[nH]c1=O -0.139%, O=C(O)C1CCCN(CCC=C(c2ccccc2)c2ccccc2)C1 (centres undefined) -7.37%, O=C(NCCc1ccc(Cl)cc1)c1nnc(Cc2ccc(F)cc2)o1 7.49%, Cc1ccc(NC(=O)C2CCCN(c3ncnc4onc(C)c34)C2)c(Cl)c1 (centres undefined) -35.1%, O=C(CCSCc1ccc(Cl)cc1)NCCc1ccccc1 -1.68%, CCc1sc(Nc2cccc(Cl)c2)nc1-c1cc2cccc(OC)c2oc1=O -11.8%, Cc1c(C(=O)OCc2ccccc2)[nH]c2c1C(=O)CC(c1ccc(N(C)C)cc1)C2 (centres undefined) -11.6%, COc1ccc(NC(=O)CN2C(=O)C(C)(C)c3cc(S(=O)(=O)N4CCCCC4)ccc32)cc1Cl -24.2%, Cc1nn2c3c(cnc2c1-c1ccc(Cl)cc1)C(=O)CC(c1ccc(C(C)C)cc1)C3 (centres undefined) 3.69%, Cc1ccc(S(=O)(=O)C(CNC(=O)COc2ccccc2)c2cccs2)cc1 (centres undefined) -33.4%, COC(=O)C1=C(C)NC(=O)NC1c1cn(-c2ccccc2)nc1-c1ccc(OC)c(Br)c1 (centres undefined) -22.4%, COc1ccc(-c2ccc3ncc4c(c3c2)n(-c2ccc(N3CCNCC3)c(C(F)(F)F)c2)c(=O)n4C)cn1 -93.5%, COc1cccc(-n2c(SCC(=O)c3ccccc3)nc3c([nH]c4ccccc43)c2=O)c1 5.19%
